{"source": "patent US20150023971A1", "about": "(H LUNDBECK A S, published 2015)", "key": {"[1]": {"target": "T1, recombinant human TrkA/Fc chimera (R&D systems) (human, UniProt P04629-2 33-407)", "T1 construct": "Bought from R&D systems; also called TrkA-IgG-Fc; not shown: IgG Fc part of the bought chimera", "assay": "SPR (Biacore), 25-500 nM proNGF over immobilised TrkA-IgG-Fc"}, "[2]": {"target": "T2, purified human Sortilin extracellular domain (produced in stably transfected CHO cells) (human, UniProt Q99523 78-755)", "T2 construct": "also called immobilized Sortilin", "T2 sequence": "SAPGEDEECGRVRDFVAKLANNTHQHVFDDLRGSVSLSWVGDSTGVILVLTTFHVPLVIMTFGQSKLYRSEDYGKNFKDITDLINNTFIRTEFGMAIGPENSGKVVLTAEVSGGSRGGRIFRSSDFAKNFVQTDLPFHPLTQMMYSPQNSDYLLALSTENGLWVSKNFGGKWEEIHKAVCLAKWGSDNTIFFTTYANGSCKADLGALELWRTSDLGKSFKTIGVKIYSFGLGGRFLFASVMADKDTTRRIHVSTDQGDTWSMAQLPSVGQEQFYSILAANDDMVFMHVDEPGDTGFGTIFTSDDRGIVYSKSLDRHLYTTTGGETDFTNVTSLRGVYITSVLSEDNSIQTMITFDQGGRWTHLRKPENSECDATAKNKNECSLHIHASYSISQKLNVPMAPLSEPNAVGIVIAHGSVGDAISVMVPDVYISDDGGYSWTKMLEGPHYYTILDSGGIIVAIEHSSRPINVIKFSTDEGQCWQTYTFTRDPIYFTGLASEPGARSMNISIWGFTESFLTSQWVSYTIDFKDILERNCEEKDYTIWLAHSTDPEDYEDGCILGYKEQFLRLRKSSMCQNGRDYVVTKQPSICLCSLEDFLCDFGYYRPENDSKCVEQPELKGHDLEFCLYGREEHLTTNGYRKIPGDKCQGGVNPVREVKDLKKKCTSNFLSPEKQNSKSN", "assay": "SPR (Biacore), 25-500 nM proNGF over immobilised Sortilin extracellular domain"}}, "data": [{"binder": "Human recombinant proNGF (produced and purified in E. coli) (ligand, Made as in Rattenholl et al 2001) not shown", "values": [{"measurement": "Kd", "setting": "[1]", "value": "~15", "unit": "nM"}, {"measurement": "Kd", "setting": "[2]", "value": "~5", "unit": "nM"}]}]}
